{"source": "patent EP4538285A1", "about": "(Chineo Medical Technology Co., Ltd., dated 2025)", "binders": {"B1": {"name": "Seq No.1-RFc (wild-type PD-1 fused to rabbit IgG Fc) (Fc fusion)", "chain": "not shown", "notes": "also called PD1-RFc; not shown: rabbit IgG Fc (RFc) of vector pcDNA3.4-RFc"}}, "molecular_target": "T1, Tilelizumab", "T1 construct": "Biotin-labelled in flow cytometry; also called Tevimbra; Tislelizumab", "experiment": "SPR, Biacore T200; PD1-RFc mobile phase, antibody stationary phase", "data": [{"binder": "B1", "values": [{"measurement": "Kd", "value": 0.0135, "unit": "nM"}, {"measurement": "koff", "value": "4.21e-05", "unit": "s⁻¹"}, {"measurement": "kon", "value": "3.12e+06", "unit": "M⁻¹ s⁻¹"}]}]}
